# Whole data set: some 33,000 sequences, median “E-score (-0.5 to 0.5)” near -0.01, cut for the highest 2% near 0.26. The list shows a part of the results.
# Target: Ste12 (UniProt P13574)
# Assay: PBM E-score (8-mer binding enrichment) (E-score (-0.5 to 0.5)); higher = stronger / more preferred TF binding; most listed sequences are background and not binding sites
# Conditions: protein concentration: 200 nM; construct: GST-DNA-binding domain
# How it was run: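 Universal all-10-mer Agilent arrays, fresh or stripped once, were converted to double-stranded form by primer extension. GST-tagged yeast transcription factors from PURExpress in vitro transcription/translation, full-length or DNA-binding domain only, were applied at about 100-200 nM and detected with fluorescent anti-GST. After masliner normalisation, the Universal PBM Analysis Suite scored each ungapped eight-base word together with its reverse complement by E-score.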
row,Sequence,PBM E-score
1,ATTGTCTC,0.0736
2,AACCCCTG,-0.0957
3,TTCGCAAA,0.191
4,GCAACGAA,0.0929
5,ATCTAAAC,0.127
6,AAGGTCTC,-0.0597
7,AGAATATC,0.00795
8,ACGAACGA,-0.0257
9,AGTTGATC,0.0522
10,ACTGCCAA,0.0998
11,AGGAGAAT,-0.0103
12,AGACATGG,-0.0301
13,GTTTGTGA,0.0106
14,CGTCATGC,-0.0786
15,ATCAATGG,-0.0615
16,AACTGAGC,-0.1
17,CCGATAGG,-0.0559
18,AGACGTGA,0.0132
19,CCCAGCGC,-0.221
20,AATTGCAA,0.101
21,CATGCGCC,-0.0842
22,AGTTCATG,0.106
23,CAATCAGC,-0.129
24,AACAGGTT,0.0874
25,ATGACGTC,-0.0322

row,Sequence,PBM E-score
1,AATTGATG,0.211
2,ACTGGCAT,-0.178
3,CAATTATG,0.0688
4,ACGCATAT,0.0405
5,CACACCTA,-0.083
6,CGGGGCCA,-0.00818
7,ATATTGAT,0.248
8,AATCCCAA,0.148
9,ATCAAACA,0.27
10,CCTCGTTC,0.00191
11,TATTACGA,0.107
12,TTTCGAAA,0.192
13,ATTAGACA,-0.0414
14,ACGGAGAT,-0.112
15,AAATTAAC,0.166
16,AGCCGATG,-0.171
17,AGGTACTG,-0.135
18,GGGACCAC,-0.0322
19,CTGCCACC,-0.0158
20,ACAAGCGC,0.0675
21,ACCGAATC,0.0598
22,CAGTCGCA,-0.0488
23,ACGCATCT,-0.155
24,GCATGTCC,-0.0404
25,CTGTTCTA,-0.0904

row,Sequence,PBM E-score
1,ACGCATAG,-0.145
2,CTCGGAAC,-0.0133
3,ATCGTGTA,-0.0948
4,TGTAGACA,-0.0491
5,CATGATAA,0.135
6,CGGCTCAG,-0.0358
7,CGATTAAA,0.073
8,GATCTGAC,-0.00638
9,ATTTGGTA,0.156
10,CTACTCTA,0.0458
11,AGCGCGGC,0.0144
12,CGGGTAAA,0.148
13,CCCGGGTC,-0.162
14,ACCGAGGG,-0.286
15,AGGGCTCG,-0.2
16,CCTCACCA,-0.00215
17,AAGAAATG,0.229
18,AAGTGGTA,-0.0776
19,ATTTTTGA,0.298
20,ACTTAATG,-0.00069
21,CTGGTCCC,-0.148
22,CCAACGAG,-0.0542
23,AACTATTA,0.0788
24,ATATGCAA,-0.0415
25,ATATTATG,0.303

row,Sequence,PBM E-score
1,GTCGCTAA,-0.0102
2,CATCCTCG,-0.0832
3,GATTAATC,0.0706
4,CTATTGAG,0.0902
5,AGCGTTCC,-0.166
6,AATGGTTA,0.0312
7,CCACGCCG,-0.187
8,GATCCAGA,0.102
9,CAGCGATA,-0.0269
10,AGATAATC,-0.0301
11,ACGTACTC,0.0471
12,CCCTATAA,0.00323
13,TCCATAAA,0.11
14,CGATCCTC,-0.292
15,CTCTGGTC,0.0382
16,AAGGCAGA,0.0822
17,GTCTCCAC,-0.101
18,CCAAGGAG,-0.101
19,CGTGTGAA,0.14
20,GCGATCTA,0.0687
21,CAGGTTCA,-0.0316
22,CTGGACTA,-0.102
23,AGCCATAT,-0.0376
24,ATCGTGCA,0.0196
25,ATCGAGAC,0.0135

row,Sequence,PBM E-score
1,CCGCTCAG,0.108
2,CCATCGAG,-0.0652
3,TATTAATA,0.336
4,CCAACTAC,0.0929
5,CAACACGG,0.0245
6,CTTCGCGC,0.029
7,CTCCTCGA,-0.101
8,ACGGACAC,-0.131
9,GACACAGA,-0.138
10,CAGCCTAA,-0.0731
11,AAGGGACT,-0.11
12,AAGACTAT,-0.0149
13,AAGATTCA,0.138
14,GGTTTAAC,0.0536
15,GCATCCAC,-0.0681
16,CTGGGAAC,-0.0225
17,ACTTTGGA,0.132
18,AGTATACA,-0.108
19,ACTGTTTG,0.188
20,GACTTAAA,-0.054
21,ACTCTCTC,-0.0599
22,ATGCGTTG,0.0252
23,ACGGCCCG,0.0206
24,AATTGTAC,0.0447
25,ACAAGAAT,0.137

row,Sequence,PBM E-score
1,CAGAGCAG,0.078
2,CTTAAGCC,-0.179
3,ACTTCACA,-0.00253
4,CCCAACGC,0.0783
5,CAACATAC,0.0206
6,GAGTGCGA,-0.0155
7,GTCTGTTA,0.0898
8,AATCTACC,0.0153
9,GTTCATAA,0.198
10,GACACCTA,-0.0929
11,ATATAACA,0.23
12,CTATGAAA,0.211
13,ACACTTCT,-0.00302
14,AGGGCGGC,-0.0895
15,ATTGATAG,-0.0262
16,CCATATAC,0.0835
17,CAGCAGTC,-0.105
18,CTGTGGTA,-0.0102
19,AACCTTAC,0.168
20,GCCAGAAA,0.203
21,TACAACAA,0.249
22,CGCTGAGA,-0.0821
23,TGCGTACA,-0.128
24,ACTGTCCG,-0.0128
25,AGCGTTAC,-0.0898

row,Sequence,PBM E-score
1,GGAAATAC,0.0882
2,ATGGAGAA,-0.0326
3,AGTCCGAC,0.0181
4,AGAACGGA,-0.202
5,GACAATAC,0.176
6,CTGCAATC,0.0401
7,TAAGATGA,0.0722
8,ATCCGTAG,-0.162
9,CTACAGTA,0.0907
10,CCTCGACA,-0.0403
11,CTGTCAGA,0.0092
12,CATCTCTC,-0.00146
13,AAAACTCG,0.125
14,TCACTGAA,0.0974
15,CCCAGGTC,-0.207
16,ATTCTTAC,0.163
17,CCTGCGCC,0.0287
18,ATTAGAGG,-0.0381
19,AGTCGTTC,-0.178
20,AGATGGAT,-0.113
21,ACTCAAAA,0.165
22,CACCTCGA,0.155
